About 930 (0.24%) of roughly 390,000 compounds were called active. Inconclusive means that the source gave no clear call. Such entries were picked first, then a sample of the others. The call rests on the fitted dose curve; in most records, active means well fitted activation curve with a large enough effect; inconclusive means small, poorly fitted or top-dose-only effect; inactive means no such curve, though single readings can be large or run the other way. Where the call is inconclusive, the potency comes from a doubtful curve fit.
Test: qHTS for Suppressors of FUS Proteinopathy: Primary screen using FUS-linked yeast assay; further: nearly all actives have a fitted effect of over 55% in size
Conditions: S. cerevisiae FUS-expressing, OD600, 24 h; Potency: growth rescue; series mostly up to 76.6 µM
In short: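 Restored growth of FUS-toxic S. cerevisiae, read as 600 nm absorbance after 24 h at 30C in galactose medium (starting OD 0.005). Controls CP55940 and DMSO.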
Potency means the concentration at half of the fitted maximal effect; tags describe the fitted curve by direction and shape.

Structure (SMILES) | Potency
Cc1ccccc1CSc1nc2cccnc2n1Cc1ccc(C(=O)NCCc2cccs2)cc1 | inconclusive: 31.6 µM [activator, single point]
C=CCOc1ccc(C2C(C(=O)c3ccco3)=C(O)C(=O)N2c2nnc(C)s2)cc1 (stereo unspecified) | inconclusive: 25.1 µM [activator, single point]
Cc1cc(/C=C2\C(=N)N3N=C(CC(=O)N4CCOCC4)SC3=NC2=O)c(C)n1-c1ccccc1 | inconclusive: 44.7 µM [activator, single point]
CCc1ccc(S(=O)(=O)c2nnn3c2nc(NCc2ccccc2OC)c2cc(Cl)ccc23)cc1 | inactive
CCOc1ccccc1N1CCN(C(=O)c2cc3c(C)cc(C)cc3[nH]2)CC1 | inconclusive: 31.6 µM [activator, single point]
COc1ccccc1-c1ncn(Cc2cccc(-c3ccccc3)c2)c1-c1cc(C)cc(C)c1 | inconclusive: 4.47 µM [activator, full curve, poor fit]
CCn1c2ccccc2c2cc(NC(=O)COC(=O)c3ccc(O)cc3)ccc21 | inconclusive: 8.91 µM [activator, partial curve]
COc1cccc(-c2cc(NC(C)=O)c3ncc(-c4ccc(OC)c(OC)c4)n3c2)c1 | inconclusive: 31.6 µM [activator, single point]
COc1cc(CNc2ncnc3c2ncn3[C@H]2CN(Cc3ccc4c(c3)OCO4)C[C@@H](CO)O2)cc(OC)c1OC | inconclusive: 10 µM [activator, partial curve]
Cc1ccc(NC(=O)Cn2c(-c3nonc3N)nc3ccccc32)cc1Cl | inactive
CN(CC(=O)Nc1cccc(F)c1)C(=O)c1sccc1-c1ccccc1 | inactive
CCc1c(-c2ccccc2F)ncn1Cc1cccc(-c2ccccc2)c1 | inconclusive: 28.2 µM [activator, partial curve, poor fit]
CN1/C(=C\C(=O)c2cccnc2)C(C)(C)c2ccccc21 | inactive
OCCCn1c(C2CCCN2c2nc(-c3ccc(Cl)cc3)cs2)nc2cc(C(F)(F)F)ccc21 (stereo unspecified) | inconclusive: 35.5 µM [activator, partial curve, poor fit]
COc1cccc(N2C(=O)C(c3ccccc3)=C(c3nc4ccccc4s3)C2NC(C)=O)c1 (stereo unspecified) | inconclusive: 35.5 µM [activator, single point]
COC(=O)[C@@]12C[C@@H](CC(=O)NCc3cccs3)C(=O)N(Cc3cccc4ccccc34)C1=CCC(C)(C)C2 | inconclusive: 31.6 µM [activator, single point]
O=C(CCc1nc2ccccc2[nH]c1=O)OCC(=O)N1CCc2ccccc21 | inconclusive: 12.6 µM [activator, partial curve, poor fit]
CN(C)S(=O)(=O)c1cccc(NC(=S)Nc2ccc3cn[nH]c3c2)c1 | inconclusive: 11.2 µM [activator, partial curve, poor fit]

Structure (SMILES) | Potency
O=C1c2ccccc2-c2onc3c(NCCO)cc(NC4CCCCC4)c1c23 | inconclusive: 50.1 µM [activator, single point]
CC(C)C1C(=O)N(Cc2cn(CCC3OCCO3)nn2)CCS(=O)(=O)N1Cc1ccc(-c2ccccc2)cc1 (stereo unspecified) | inconclusive: 22.4 µM [activator, single point]
CCOC(=O)N1CCN(C(=O)c2ccc3c(c2)N=C(CC)c2cc(C)ccc2S3)CC1 | inconclusive: 14.1 µM [activator, single point]
CCCCN(C(=O)c1cc2c(s1)CCC2)c1c(N)n(CCCC)c(=O)[nH]c1=O | inconclusive: 28.2 µM [activator, partial curve]
COc1cccc(C(=O)Oc2c(Br)cc(Br)cc2/C=N/NC(=O)c2cc(C)[nH]n2)c1 | inconclusive: 31.6 µM [activator, single point]
COc1ccc(N2CCN(S(=O)(=O)c3cc4c(cc3C)N(C(C)=O)CCO4)CC2)cc1 | inconclusive: 25.1 µM [activator, partial curve, poor fit]
COC(=O)[C@]12CCCCC=C1N(CCc1ccc(OC)c(OC)c1)C(=O)[C@H](CC(=O)NCc1ccc(OC)c(OC)c1)C2 | inconclusive: 6.31 µM [activator, partial curve]
Cc1ccc(Cn2c(=S)[nH]c3ccc(N4CCOCC4)cc3c2=O)o1 | inconclusive: 39.8 µM [activator, partial curve, poor fit]
CCOc1cccc(CN(C)CC2CCCN(CCc3ccc(Cl)cc3)C2)c1O (stereo unspecified) | inconclusive: 4.47 µM [activator, full curve, poor fit]
Cc1cccc([C@@H]2[C@@H]3C(=O)N(Cc4ccccc4)C(=O)[C@@H]3[C@]3(CC(C)C)C(=O)N(c4cccc(F)c4)C(=O)N23)c1 | inconclusive: 11.2 µM [activator, partial curve, poor fit]
CN(C)CCCNC(=O)C[C@H]1C[C@H](C(=O)N2CCCCC2)[C@@]2(CCc3ccccc3)c3[nH]c4cc(-c5ccco5)ccc4c3CCN2C1=O | inconclusive: 28.2 µM [activator, single point]
CC(Oc1ccccc1F)C(=O)Nc1ccc(-c2nc3ccccc3s2)cc1 (stereo unspecified) | inactive
Cc1nc(CC(=O)N/N=C/c2ccc(OCC(=O)O)cc2)cs1 | inconclusive: 11.2 µM [activator, single point]
CC1CCc2c(sc(NC(=O)c3cc4nc(-c5ccc(Cl)cc5)cc(C(F)(F)F)n4n3)c2C#N)C1 (stereo unspecified) | inactive
CC1CC(C)CN(C(=O)CSCC(=O)Nc2nc(-c3cccs3)cs2)C1 (stereo unspecified) | inactive
COC(=O)CN1C(=O)CSc2ccc(S(=O)(=O)Nc3cccc(Cl)c3C)cc21 | inactive
C[C@H](CO)N1C[C@H](C)[C@@H](CN(C)Cc2ccc(-c3ccccc3)cc2)Oc2c(NS(=O)(=O)c3ccc(F)cc3)cccc2C1=O | inconclusive: 31.6 µM [activator, single point]
COc1cc(-c2cnc3c(NC=O)cc(-c4cccc(C(F)(F)F)c4)cn23)cc(OC)c1OC | inconclusive: 35.5 µM [activator, partial curve, poor fit]

— PubChem BioAssay AID1347120 (National Center for Advancing Translational Sciences (NCATS), 2019)
